Laboratory results: PubChem BioAssay (NCI)
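The compound was tested at five concentrations on cells cultured in 96-well plates, with a 48-hour exposure period. At the GI50, growth is halved. The concentration for full growth arrest is given as TGI.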 Square brackets hold non-standard residues; d marks the D form. Peptide text beside a SMILES is read from it. 2Nal = N[CH](Cc1ccc2ccccc2c1)C(=O)O

These compounds were tested on NCI-H322M lung (assay: NCI-60 cell line screen, 48 h).

SMILES	TGI [µM]	GI50 [µM]
CC(=O)O[C@H]1C(=O)[C@@]2(C)[C@H]([C@H](OC(=O)c3ccccc3)[C@@]3(O)C[C@H](O)C(C)=C1C3(C)C)[C@]1(OC(C)=O)CO[C@@H]1C[C@@H]2O	> 100	–
Cc1nc(Nc2ccccc2)sc1C(=O)CC(=O)C(=O)NC12CC3CC(CC(C3)C1)C2	> 100	–
COC(=O)C1C(C(=O)OC)C1(Br)CBr (stereo not drawn)	> 100	–
CSc1nc(NC2OC(COC(C)=O)C(OC(C)=O)C(OC(C)=O)C2OC(C)=O)c(N=C(C)C(C)=O)c(=O)n1C (stereo not drawn)	> 100	–
N#Cc1c(-c2ccccc2)c(C#N)c(=O)n(C2OC(CO)C(O)C(O)C2O)c1S (stereo not drawn)	> 100	–
CC(C)C(NC(=O)C(CCCCN)NC(=O)C(Cc1c[nH]c2ccccc12)NC(=O)C(Cc1ccc(O)cc1)NC(=O)C(CS)NC(=O)C(N)Cc1ccc2ccccc2c1)C(=O)NC(CS)C(=O)NC(C(N)=O)C(C)O (stereo not drawn) (H-[2Nal]CYWKVCT-NH2; configuration not given here)	> 100	> 100
CCCN1C(=O)/C(=C/c2ccc(O)cc2)SC1=Nc1ccc(OC)cc1	31.2	15.6
CCO[C@@H]1OC(=O)[C@@](C)(C(C)=O)[C@@H]1C	48.4	–
CCOC(=O)NC(Nc1ccc(Cl)cn1)(C(F)(F)F)C(F)(F)F	> 100	–
COCCOCCOCCOc1ccc(C(C#N)N(CCc2ccccc2)C(=O)c2cc(C(=O)N(CCc3ccccc3)C(C#N)c3ccc(OCCOCCOCCOC)cc3)cc(C(=O)N(CCc3ccccc3)C(C#N)c3ccc(OCCOCCOCCOC)cc3)c2)cc1 (stereo not drawn)	> 100	–
CC(=O)OCC(OC(C)=O)C(OC(C)=O)C(OC(C)=O)C(/C=N\Nc1nc2ccccc2c(=O)[nH]1)=N/Nc1nc2ccccc2c(=O)[nH]1 (stereo not drawn)	> 100	–
COc1cc(C23OCC(Cc4cc5c(cc42)OCO5)C3CO)cc(OC)c1OC (stereo not drawn)	> 100	–
O=C1C(=O)N(c2cccc(C(F)(F)F)c2)C(=O)C(=O)C1c1nc2ccccc2s1	> 100	–
O=C(Nc1ccc2c(c1)OCO2)C(=O)c1c[nH]c2cc(F)ccc12	90.2	11
CC(=O)Oc1c(C)c2c(c3ccccc13)OC(C)(C)C2	29.3	–
C/C=C(/C)C(=O)OC1C=C(CO)C(=O)C(OC(=O)C(C)(O)C(C)Cl)C1C(C)C (stereo not drawn)	3.02	1.64
O=C(NN1C(=O)CSC12CCCC2)C(O)c1ccccc1 (stereo not drawn)	> 100	> 100
O=C(O)CCSC(=O)Nc1ccccc1Cl	> 100	–
O=C1/C(=C/c2cccs2)NC(=S)N1CN1CCCC(CO)C1 (stereo not drawn)	> 100	–
COc1cc2ncn(-c3cc(OCc4ccccc4C(F)(F)F)c(C(C)=O)s3)c2cc1OC	> 25	> 25

SMILES	TGI [µM]	GI50 [µM]
C=C1C(=O)OC2C1C(OC(=O)/C(C)=C\C)CC1(CO1)C1C(O)C=C(C)C21O (stereo not drawn)	40.8	–
CC(Oc1ccccc1Cl)C(=O)NN1C(=O)CSC1c1ccc(Cl)cc1 (stereo not drawn)	42.2	–
COC(=O)c1c(C(=O)OC)c2c3ccccc3n(C)c2c2c1c1ccccc1n2C	> 100	–
Nc1c(N2CCCCC2)c(=O)nc2[nH]/c(=C\c3ccccc3)c(=O)n12	> 100	–
COC(=O)C(=O)C(C(=O)C=C(C)C)C(=O)C(=O)Nc1nc2ccc([N+](=O)[O-])cc2s1 (stereo not drawn)	> 100	–
O=[N+]([O-])c1sc2ccc(Cl)cc2c1Nc1ccc(Cl)cc1	> 100	–
O=C(O)CCC(NC(=O)c1ccc(CNc2nc3ccccc3nc2C(=O)O)cc1)C(=O)O (stereo not drawn)	> 100	–
C[C@]12CC/C(=N\OCCN3CCCCC3)C=C1CCC1C2CC[C@@]2(C)C1CC[C@]2(C)O (stereo partly drawn)	34.6	–
OC(c1ccccc1)C(F)(F)c1nc2ccccc2o1 (stereo not drawn)	> 100	–
CC(=O)Nc1ccc2cc3[nH]c4cc(NC(C)=O)ccc4c3nc2c1	> 100	–
O=c1[nH]c(=O)n(C/C=C/CBr)nc1Br	30.2	–
Cc1cc2c(cc1C)C(=O)/C(=N/Nc1ccc(F)cc1)CCO2	> 100	–
CCCCCCN(C)Cc1ccc(OCCOc2ccc(CN(C)CCCCCC)cc2)cc1	4.74	1.78
CC1=NN(C(=O)c2ccncc2)C(=O)C1N=Nc1ccc2ccccc2c1 (stereo not drawn)	> 100	–
CC(=O)C1CCC2C3CC=C4CC(SC(=N)N)CCC4(C)C3CCC12C (stereo not drawn)	7.86	2.06
C[C@]12CC[C@@H]3c4ccc(OCCN5CCCC5)cc4CC[C@H]3[C@@H]1CCC2=O	> 100	–
Nc1ccccc1N=Nc1c(S(=O)(=O)O)cc2cc(S(=O)(=O)O)cc(O)c2c1O	> 100	–
CC[C@@H](/C=C\CCC1(C[C@@H](N)CCC=C(C)C)OCCO1)O[Si](C(C)C)(C(C)C)C(C)C	31.4	–
CC(=O)ON(C(C)=O)C1C(COC(c2ccccc2)(c2ccccc2)c2ccccc2)OC2OC3(CCCC3)OC21 (stereo not drawn)	> 100	–
C=C1NC(=O)C(CC(C(=O)C(=O)Nc2c(C)cccc2C(C)(C)C)C(=O)c2ccc3ccccc3c2)C(=O)N1 (stereo not drawn)	> 100	–
